From publication PMC4336329 (PLoS ONE, 2015) come the findings set out here.

The structures appear in SMILES notation. About 14,000 (4.5%) of roughly 310,000 compounds showed an effect of 50% or more. Effects have a minus sign here. The list shows a part of the results.
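Note: peak tail current of the secondary pulse compared with the same well before compound.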

human ether-à-go-go-related gene (hERG) potassium channel, sequence (Q12809 whole entry, looked up): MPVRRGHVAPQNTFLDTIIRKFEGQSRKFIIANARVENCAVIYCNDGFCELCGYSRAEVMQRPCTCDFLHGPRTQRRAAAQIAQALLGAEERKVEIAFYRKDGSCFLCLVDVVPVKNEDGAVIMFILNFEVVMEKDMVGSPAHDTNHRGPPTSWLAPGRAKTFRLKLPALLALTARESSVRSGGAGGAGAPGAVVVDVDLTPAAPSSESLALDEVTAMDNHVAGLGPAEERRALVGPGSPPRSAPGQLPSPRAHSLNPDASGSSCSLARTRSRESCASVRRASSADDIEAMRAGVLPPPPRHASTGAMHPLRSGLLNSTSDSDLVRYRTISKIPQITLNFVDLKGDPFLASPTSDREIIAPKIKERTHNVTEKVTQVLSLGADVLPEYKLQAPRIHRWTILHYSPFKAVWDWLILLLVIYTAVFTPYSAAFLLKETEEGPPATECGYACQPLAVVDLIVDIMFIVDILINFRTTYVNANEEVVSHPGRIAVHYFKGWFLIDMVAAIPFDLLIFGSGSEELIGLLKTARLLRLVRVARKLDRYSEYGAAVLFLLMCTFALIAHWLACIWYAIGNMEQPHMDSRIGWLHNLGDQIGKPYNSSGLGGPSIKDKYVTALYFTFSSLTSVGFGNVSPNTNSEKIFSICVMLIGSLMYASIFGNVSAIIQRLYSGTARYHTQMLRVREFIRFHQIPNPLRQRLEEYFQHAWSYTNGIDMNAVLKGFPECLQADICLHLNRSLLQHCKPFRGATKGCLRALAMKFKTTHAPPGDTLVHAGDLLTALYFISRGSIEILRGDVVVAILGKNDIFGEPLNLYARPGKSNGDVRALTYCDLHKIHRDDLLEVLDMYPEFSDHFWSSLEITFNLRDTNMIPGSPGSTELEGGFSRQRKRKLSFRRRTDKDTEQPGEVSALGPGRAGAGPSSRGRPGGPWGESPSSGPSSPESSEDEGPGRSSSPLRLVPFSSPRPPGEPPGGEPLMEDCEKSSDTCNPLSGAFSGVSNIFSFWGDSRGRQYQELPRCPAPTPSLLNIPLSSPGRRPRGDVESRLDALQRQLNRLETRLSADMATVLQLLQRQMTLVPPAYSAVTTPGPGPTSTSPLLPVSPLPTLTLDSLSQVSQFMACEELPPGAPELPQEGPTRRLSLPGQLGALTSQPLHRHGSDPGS

This assay addresses human ether-à-go-go-related gene (hERG) potassium channel (human, UniProt Q12809). Description: primary screen, population patch clamp on CHO cells stably expressing hERG.
Regarding `Cc1cnc(NC(=O)CSc2nnc(-c3ccncc3)n2C2CCCCC2)s1`, the “hERG current change (%, negative = inhibition) at 10uM” value is listed as -18.9%.

Turning to `Cn1c(=O)n(CCc2ccccc2)c2ccccc21`, the “hERG current change (%, negative = inhibition) at 10uM” value was determined as 12.2%.

As for `COCCCn1c2nc3ccccc3nc2c2c(=O)n(-c3ccccc3OC)cnc21`, the “hERG current change (%, negative = inhibition) at 10uM” value was determined as 3%.

Regarding `O=C(CSC1=NCCS1)Nc1ccc(S(=O)(=O)N2CCCCCC2)cc1`, the “hERG current change (%, negative = inhibition) at 10uM” value was -19.2%.

Take `CC(C)Cn1c(N)c(-c2nc(C(C)C)c(C(=O)c3ccccc3F)s2)c(=O)n(C)c1=O`: the “hERG current change (%, negative = inhibition) at 10uM” value stood at 21.8%.

For the compound `COc1cc(/C=N/Nc2nc3ccccc3s2)ccc1O`, the “hERG current change (%, negative = inhibition) at 10uM” value is -4.96%.

On to `CCc1ccc(C(=O)CSc2n[nH]c(C)n2)cc1`, for which the “hERG current change (%, negative = inhibition) at 10uM” value turned out to be 1.78%.

For the compound `COC(=O)CCCC1=CC2=CC(=O)C(C)(O)C(=O)C2=CO1` (centres unmarked), the “hERG current change (%, negative = inhibition) at 10uM” value is recorded as 7.61%.

For the compound `CCOC(=O)N1CCN(Cc2nc3cc(NC(=O)c4cccs4)ccc3n2C)CC1`, the “hERG current change (%, negative = inhibition) at 10uM” value is reported as -74.7%.

`COc1ccc(-n2c(CCC(=O)O)ccc2-c2ccc(F)cc2)c(OC)c1`: the “hERG current change (%, negative = inhibition) at 10uM” value is given as 7.95%.

For the compound `CCS(=O)(=O)NCc1nnc2n1-c1ccc(Br)cc1C(c1ccccc1Cl)=NC2`, the “hERG current change (%, negative = inhibition) at 10uM” value is -49%.

Turning to `COc1ccc(CNc2nc(NCc3ccc(OC)cc3)c3[nH]cnc3n2)cc1`, the “hERG current change (%, negative = inhibition) at 10uM” value amounted to 13.8%.

Consider `C[N+](C)(C)C[C@H](O)CC(=O)O.[Cl-]`, for which the “hERG current change (%, negative = inhibition) at 10uM” value is reported as 12%.

Regarding `CC1(C)CC(=O)C(C(O)c2ccc([N+](=O)[O-])cc2)C(C)(C)N1` (centres unmarked), the “hERG current change (%, negative = inhibition) at 10uM” value is -13%.

For `Cc1nnc(SCC(=O)NCc2ccco2)[nH]c1=O`, the “hERG current change (%, negative = inhibition) at 10uM” value is reported as 3.4%.

`CC(=O)Nc1ccc(OC(=O)c2ccccc2N)cc1`: the “hERG current change (%, negative = inhibition) at 10uM” value is -18.7%.

Take `CC(=O)Oc1ccc(C(=O)Nc2ccccc2C(=O)NCC(C)C)cc1`: the “hERG current change (%, negative = inhibition) at 10uM” value is given as -1.3%.

For the compound `Cc1ccc(C(=O)N/C(=C\c2ccc(Cl)cc2)C(=O)NCCCN2CCOCC2)cc1`, the “hERG current change (%, negative = inhibition) at 10uM” value is recorded as -72.5%.

Regarding `CC(SC1CCCC1)C(=O)NC(C)(C#N)C(C)C` (centres unmarked), the “hERG current change (%, negative = inhibition) at 10uM” value was -8.61%.

Turning to `O=C(COC(=O)c1cc(S(=O)(=O)N2CCCCC2)ccc1N1CCOCC1)c1ccc(Cl)cc1`, the “hERG current change (%, negative = inhibition) at 10uM” value was -46.1%.

Regarding `Cc1ccc(CNC(=O)CCNC(=O)c2ccco2)cc1`, the “hERG current change (%, negative = inhibition) at 10uM” value was determined as 4.4%.

For the compound `COc1ccc(NC2=C(C)C(=O)CC2)cc1`, the “hERG current change (%, negative = inhibition) at 10uM” value came to 8.74%.

`CC(=O)/C(C(=N)N1CCN(Cc2ccccc2)CC1)=C(\C)O`: the “hERG current change (%, negative = inhibition) at 10uM” value is 11.4%.

For the compound `CCn1cc(S(=O)(=O)NC2CCCCC2)cn1`, the “hERG current change (%, negative = inhibition) at 10uM” value was -3.41%.

`COC(=O)C(C)n1cnc2c(nnn2-c2ccc(C)cc2)c1=O` (centres unmarked): the “hERG current change (%, negative = inhibition) at 10uM” value is given as -10.6%.

`O=C(COC(=O)c1nc(Cl)ccc1Cl)NC1CCCCCC1`: the “hERG current change (%, negative = inhibition) at 10uM” value is reported as -22.3%.

On to `Cc1cccc(NC(=O)c2ccc([N+](=O)[O-])cc2Cl)n1`, for which the “hERG current change (%, negative = inhibition) at 10uM” value is -22.8%.

As for `O=C(c1cc(N2CCCCC2)nc2ccccc12)N1CCOCC1`, the “hERG current change (%, negative = inhibition) at 10uM” value is on record as -7.87%.

Consider `Cc1cc2c(cc1C)N(C(=O)CN1C(=O)c3ccccc3C1=O)C(C)(C)c1ssc(=S)c1-2`, for which the “hERG current change (%, negative = inhibition) at 10uM” value was determined as 8.22%.

For `CCCC(C(=O)N(C)CC(=O)Nc1ccc(N2CCOCC2)cc1)c1ccccc1` (centres unmarked), the “hERG current change (%, negative = inhibition) at 10uM” value is listed as -18.3%.

Regarding `CCOC(=O)C(Sc1nnc(-c2ccncc2)o1)C(C)=O` (centres unmarked), the “hERG current change (%, negative = inhibition) at 10uM” value amounted to 27.7%.

Take `CCN1CCN(C(=O)CCCCCn2c(=O)[nH]c3cc(C(=O)OC)ccc3c2=O)CC1`: the “hERG current change (%, negative = inhibition) at 10uM” value is given as 7.14%.

With `CN(C)C(CN1C(=O)C2CC=CCC2C1=O)c1cn(C)c2ccccc12.Cl` (centres unmarked), the “hERG current change (%, negative = inhibition) at 10uM” value was -1.75%.

Take `Cc1cccn2c(=O)c(/C=C(\C#N)C(=O)NCc3ccco3)c(N3CCCC(C)C3)nc12` (centres unmarked): the “hERG current change (%, negative = inhibition) at 10uM” value is recorded as -40.9%.

As for `CC(c1nccs1)N(C)C(=O)c1ccc(OC2CCN(CCc3ccccc3)CC2)cc1` (centres unmarked), the “hERG current change (%, negative = inhibition) at 10uM” value is reported as -51.4%.

With `Oc1ccccc1Nc1nc(-c2ccccc2O)nc2ccccc12`, the “hERG current change (%, negative = inhibition) at 10uM” value was 13.2%.

For the compound `O=C(CN1CCCCC1)Nc1scc2c1c(=O)oc1ccccc12`, the “hERG current change (%, negative = inhibition) at 10uM” value is on record as -10.1%.

On to `COc1ccc(CNC(=O)CN(C(=O)c2csnn2)c2cccc(F)c2)cc1`, for which the “hERG current change (%, negative = inhibition) at 10uM” value is -12.8%.

As to `Cc1cc(NC(=O)c2ccc(S(=O)(=O)N3CCc4ccccc43)cc2)no1`, the “hERG current change (%, negative = inhibition) at 10uM” value came to 7.22%.

Consider `CC(=O)c1cc2c(cc1N/C(=N/S(=O)(=O)c1ccccc1)c1ccc(Cl)cc1)OCO2`, for which the “hERG current change (%, negative = inhibition) at 10uM” value was -13.2%.

As for `COc1ccc(N(CCCN2C(=O)c3cccc4cccc(c34)C2=O)C(=O)c2ccncc2)cc1`, the “hERG current change (%, negative = inhibition) at 10uM” value is recorded as -9.05%.

With `CC1(C)OC(=O)N(c2ccccn2)C1(C)O` (centres unmarked), the “hERG current change (%, negative = inhibition) at 10uM” value was 17.1%.

For the compound `COc1cccc(-c2cc(C(=O)Nc3cc(C)on3)no2)c1`, the “hERG current change (%, negative = inhibition) at 10uM” value turned out to be 5.61%.

On to `COc1cc(C(=O)OCC(=O)N2CCCCC2C)cc(NC(=O)c2cccs2)c1OC` (centres unmarked), for which the “hERG current change (%, negative = inhibition) at 10uM” value amounted to 3.38%.
